Experimental data taken from the supplement of paper PMC10369915.
The list shows a part of the results. Cut-off read from the data, not from the text of the source: active = 3.2 or more and inactive = the rest. Only a few entries rise above the background.

Key:
Test in all cases: enrichment score (SH2-bound / input frequency) (ratio); bacterial display of known human phosphotyrosine sites (pTyr-Var adds point mutants) read by sequencing; higher = stronger binding; tyrosines were phosphorylated by kinases first
Details in all cases: peptide library: pTyr-Var
[1] = target: SHP2 C-SH2 domain E139D
[2] = target: SHP2 C-SH2 domain wild-type
[3] = target: SHP2 N-SH2 domain L43F
[4] = target: SHP2 N-SH2 domain T42A
[5] = target: SHP2 N-SH2 domain T52S
[6] = target: SHP2 N-SH2 domain wild-type

Measured: enrichment score
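Note: displayed peptides selected on beads carrying the immobilized SH2 domain, with library peptides lacking any tyrosine serving as negative controls.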

YSMGCYEISLG [HMGCL_Y198]
inactive: [1] 0.994 | [2] 1.47 | [3] 0.989 | [4] 0.983 | [5] 1.15 | [6] 1.21

GAVDTYCRHNF [HLA-DRB1_Y107_A102G_YF]
inactive: [1] 1.47 | [2] 1.46 | [3] 1.34 | [4] 1.35 | [5] 1.32 | [6] 1.6

RFVSRYIFNRE [HLA-DQB1_Y62_T60S_YF]
inactive: [1] 0.409 | [2] 0.189 | [3] 0.436 | [4] 0.314 | [5] 0.172 | [6] 0.119

KLKEKYQKDIA [HMGB1_Y155_E156Q]
inactive: [1] 2.39 | [2] 2.07 | [3] 2.51 | [4] 2.15 | [5] 2.56 | [6] 2.27

RFLERYIFNRQ [HLA-DPB1_Y57_E62Q_YF]
inactive: [1] 0.906 | [2] 0.835 | [3] 0.943 | [4] 0.904 | [5] 0.768 | [6] 0.858

RFLERYIFNPE [HLA-DPB1_Y57_R61P_YF]
inactive: [1] 1.92 | [2] 1.59 | [3] 1.79 | [4] 2.06 | [5] 1.75 | [6] 1.8

FSMGCYEIFLG [HMGCL_Y198_S201Y_YF]
inactive: [1] 1.77 | [2] 1.71 | [3] 1.6 | [4] 1.33 | [5] 1.49 | [6] 2.01

RFLTRYIFNRE [HLA-DQB1_Y62_V59L_YF]
inactive: [1] 0.349 | [2] 0.331 | [3] 0.374 | [4] 0.384 | [5] 0.329 | [6] 0.51

FCRHNYGAVES [HLA-DRB1_Y112_V114A_YF]
inactive: [1] 2.18 | [2] 2.18 | [3] 2.15 | [4] 1.93 | [5] 2.19 | [6] 2.33

GKMSSYAFFVQ [HMGB1_Y16]
inactive: [1] 1.05 | [2] 1.62 | [3] 1.09 | [4] 1.44 | [5] 1.05 | [6] 1.04

LERYIYNREEF [HLA-DPB1_Y59]
inactive: [1] 1.14 | [2] 0.884 | [3] 0.786 | [4] 0.793 | [5] 0.978 | [6] 0.724

RFVTRSIFNRE [HLA-DQB1_Y62_Y62S_YF]
inactive: [1] 0.335 | [2] 0.321 | [3] 0.224 | [4] 0.324 | [5] 0.271 | [6] 0.231

AEVDTYCRHNF [HLA-DRB1_Y107_A103E_YF]
inactive: [1] 0.936 | [2] 1.06 | [3] 0.82 | [4] 0.832 | [5] 0.965 | [6] 1.15

SHSMRYFDTAV [HLA-C_Y31]
inactive: [1] 1 | [2] 0.881 | [3] 0.737 | [4] 0.76 | [5] 0.751 | [6] 0.843

EWLRRYLKNGK [HLA-C_Y195_E197K]
inactive: [1] 0.385 | [2] 0.288 | [3] 0.296 | [4] 0.187 | [5] 0.208 | [6] 0.341

FSMGCYEISLG [HMGCL_Y198_YF]
inactive: [1] 0.817 | [2] 0.9 | [3] 0.795 | [4] 0.763 | [5] 0.638 | [6] 0.94

GKGGSYSKAES [HLA-E_Y341_W346S]
inactive: [1] 0.439 | [2] 0.453 | [3] 0.612 | [4] 0.378 | [5] 0.445 | [6] 0.53

YCRHNYGVVES [HLA-DRB1_Y112]
inactive: [1] 2.06 | [2] 1.9 | [3] 2.1 | [4] 1.59 | [5] 1.81 | [6] 2.19

GAVDTYCRHNY [HLA-DRB1_Y107_A102G]
inactive: [1] 1.36 | [2] 1.34 | [3] 0.88 | [4] 0.856 | [5] 1.2 | [6] 1.25
